PubChem BioAssay AID540317 (National Center for Advancing Translational Sciences (NCATS), 2011)
Hit rate of the full screen: of about 390,000 compounds, about 2,200 (0.56%) were called active. Inconclusive means that the source gave no clear call. Such entries were picked first, then a sample of the others. Calls come from the whole dose curve; as a rule, active = well fitted inhibition curve with a large enough effect; inconclusive = small, poorly fitted or top-dose-only effect; inactive = no such curve, though single readings can be large or run the other way. A potency beside an inconclusive call is a rough fit, not a confirmed value.

What follows are compounds tested against Chromobox protein homolog 1 (Homo sapiens) (UniProt P83916) (assay: HTS for Inhibitors of HP1-beta Chromodomain Interactions with Methylated Histone Tails). Conditions: AlphaScreen HP1-beta / biotin-H3K9me3 peptide binding; series mostly up to 114 µM.
Summary of the method: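 AlphaScreen: HP1-beta (50 nM) preformed 30 min with biotin-H3(1-18)K9me3 peptide (50 nM) in PBS pH 7.4, 0.01% Tween-20. Compound added for 30 min at RT, then streptavidin donor/nickel chelate acceptor beads (10 ug/mL) for 30 min.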
Note: nearly all actives have a fitted effect of over 70% in size.
Potency is the fitted concentration of half-maximal effect; tags give direction and shape of the fitted curve.

Chain of UniProt P83916 (P83916 whole entry, looked up): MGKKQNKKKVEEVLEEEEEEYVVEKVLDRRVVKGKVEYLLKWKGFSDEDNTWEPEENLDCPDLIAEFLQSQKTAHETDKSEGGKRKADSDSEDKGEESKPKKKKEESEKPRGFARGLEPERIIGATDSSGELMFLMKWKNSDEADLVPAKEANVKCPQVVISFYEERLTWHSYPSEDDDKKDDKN

SMILES | Potency
COc1ccccc1CN1CC(C(=O)NCc2cnn(C)c2)CCC1=O (stereo not drawn) | inactive
O=C(O)c1cccc(-n2cccc2/C=C2/SC(=O)N(CC(=O)N3CCCC3)C2=O)c1 | inconclusive: 79.4 µM [inhibitor, single point]
COC(=O)c1cc(C#N)c(NCc2ccccc2)nc1C | inconclusive: 5.01 µM [inhibitor, full curve, poor fit]
CC(NC(=O)CN1CCC(C(N)=O)CC1)c1ccccc1 (stereo not drawn) | inactive
CN(C)S(=O)(=O)c1cccc(NC(=S)N/N=C/c2ccc(O)c(O)c2O)c1 | inconclusive: 12.6 µM [inhibitor, partial curve, poor fit]
O=C(O)c1cc(/C=C/C(=O)c2cc(F)ccc2O)c2c(c1)COCO2 | inactive
COc1ccc(CCN(C)C(=O)CN2C(=O)c3ccccc3S2(=O)=O)cc1OC | inconclusive: 39.8 µM [inhibitor, single point]
CC(Cc1ccc(O)c(O)c1)C(C)Cc1ccc(O)c(O)c1 (stereo not drawn) | inconclusive: 17.8 µM [inhibitor, full curve]
CCc1cc2cc(C)cc(C)c2nc1SCC(=O)N1CCN(C(=O)c2ccco2)CC1 | inconclusive: 15.8 µM [inhibitor, partial curve, poor fit]
CC1CCN(c2oc(-c3ccc(OCc4ccccc4Cl)cc3)nc2C#N)CC1 | inconclusive: 6.31 µM [inhibitor, partial curve]
COc1ccccc1OCc1nc(C#N)c(N2CC(C)CC(C)C2)o1 (stereo not drawn) | inconclusive: 28.2 µM [inhibitor, full curve]
Fc1ccc(-[n+]2nc(Nc3ccccc3)sc2-c2c3ccccc3cc3ccccc23)cc1 | inconclusive: 8.91 µM [inhibitor, full curve]
C[n+]1ccn(CC(=O)c2ccc(Cl)cc2)c1 | inconclusive: 25.1 µM [inhibitor, partial curve, poor fit]
FC(F)Sc1nc(-c2ccccc2)c(-c2ccccc2)n1C(F)F | inconclusive: 35.5 µM [inhibitor, partial curve, poor fit]
O=c1c2ccccc2sn1-c1ccc(Cl)c(S(=O)(=O)N2CCOCC2)c1 | inconclusive: 2.51 µM [inhibitor, full curve, poor fit]
Cc1ccc(C2/C(=C(/O)c3cnn(-c4ccccc4)c3C)C(=O)C(=O)N2CCN2CCOCC2)o1 (stereo not drawn) | inactive
COc1ccc(Cc2nc(=S)[nH][nH]2)cc1Br | inconclusive: 22.4 µM [inhibitor, full curve]
CCCCn1c(-c2ccccc2)cnc1SCC(=O)NCCc1ccc(OC)c(OC)c1 | inconclusive: 31.6 µM [inhibitor, partial curve]
